First the molecules themselves.
B1: OR4K15 (parent)
chain: GUUAACGGUCAUAGGCCAUGGAAACUAGGAGCACCAUUUCGCUGCCAGUGAAGAAAUGAACAAAGAAAAUCUGGGCCAGGCAGGCAUCAAAAGAAAUAGUCUUGCGCUCAACCAGAAAGUCUGUAAUCAUUUUAAGGGUA

The source gives no read counts; variants with many changes may rest on few reads.

In the data set the parent is B1. Put plainly: self-cleavage, relative activity (ratio to wild type); higher = more cleavage; in vitro, sequencing; the parent is a self-cleaving ribozyme.
With GUUAACGGCCAUAGGCCAUGGAAACUAGGAGCACCAUUUCGCUGCCGGUGAAGAAAUGAACAAAGAAAAUCAGGGCCAGGCAGGCAUCAAAAGAAAUAGUCUUGCGCUCAACCAGAAAGGCUGUAAACAUUUUAAGGGUA, the self-cleavage was 0.24.
The figure for GUUAACGGCCAUAGGCCAUGGAAACUAGGAGCACCAUUUCGCUGCCUGUGAAGAAAUGAACAAAGAAAAUCUGGGCCAGGCAGGCAUCAAAGGAAAUAGUCUUGCGCUCAACCAGAAAGUCUGUAAUCAUUUUAAGGGUA is 0.81; for GUUAACGGCCAUAGGCCAUGGAAACUAGGAGCACCAUUUCGCUGCCAGUGAAGGAAUGAACAAAGAAAAUCUGGGCCAGGCAGGCAUCAAAAGAAAUAGUCCUGCGCUCAACCAGAAAGUCUGUAAUCAUUUUAAGGGUA it is 1.43; for GUUAACGGCCAUAGGCCAUGGAAACUAGGAGCACCGUUUCGCUGCCAGUGAAGAAAUGAACAAAGAAAAUCUGGGCCAGGCAGGCCUCAAAAGAAAUAGUCUUGCGCUCAACCAGAAAGUCUGUAAUCAUUUUAAGGGUA it is 0.21.
With GUUAACGGCCAUAGGCCAUGGAAACUAGGAGCACCUUUUCGCUGCCAGUGAAGAAGUGAACAAAGAAAAUCUGGGCCAGGCAGGCAUCAAAAGAAAUAGUCUUGCGCUCAACCAGAAAGUCUGUAAUCAUUUUAAGGGUA, the self-cleavage worked out at 1.18.
For the variant GUUAACGGCCAUAGGCCAUGGAAACUAGGAGCACCAUUUCGCUGCCAGUGAAGAAGUGAACAAAGAAAGUCUGGGCCAGGCAGGCAUCAAAAGAAAUAGUCUUGGGCUCAACCAGAAAGUCUGUAAUCAUUUUAAGGGUA, the self-cleavage stood at 0.08.
Then GUUAACGGCCAUAGGCCAUGGAAACUAGGAGCACCGUUUCGCUGCCAGUGAAGAAAUGAACAAAGAAAAUCUGGGCCAGGCCGGCAUCAAAAGAAAUAGUCUUGCGCUCAACCAGAAAGUCUGUAAUCAUUUUAAGGGUA, with 0.11; and GUUAACGGCCAUAGGCCAUGGAAACUAGGAGCACCAUUUCGCUGCCAGUGAAGAAAUGGACAAAGAAAAUCUGGGCCAGGCAGACAUCAAAAGAAAUAGUCUUGCGCUCAACCAGAAAGUCUGUAAUCAUUCUAAGGGUA, with 1.45.
The figure for GUUAACGGCCAUAGGCCAUGGAAACUAGGAGCACCAUUUCGCUGCCAGUGAUGAAAUGAACAAAGAAAAUCUGGGCCAGGCAGGCAUCAAAAGAAAUAGUCUUGCGCUCAACCAGAAAGACUGUAAUCAUUUUAAGGGUA is 1.45; for GUUAACGGCCAUAGGCCAUGGAAACUAGGAGCACCUUUUCGCUGCCAGCGAAGAAAUGAACAAAGAAAAUCUGGGCCAGGCAGGCAUCAAAAGAAAUAGUCCUGCGCUCAACCAGAAAGUCUGUAAUCAUUUUAAGGGUA it is 2.82; for GUUAACGGCCAUAGGCCAUGGAAACUAGGAGCACCAUUUCGCUGCCAGUGAAGGAAUGGACAAAGAAAAUCUGGGCCAGGCAGGCAUCAAAAGAAAUAGUCUUGCGCUCAACCAGAAAGUCUGUAAUCAUUUUAGGGGUA it is 1.02.
Then GUUAACGGCCAUAGGCCAUGGAAACUAGGAGCACCAUUUCGCUGCCAGUGGAGAAAUGAACAAAGGAAAUCUGGGCCAGGCAGGCAUCAAAAGAAAUAGUCUUGCGCUCAACCAGAAAGUCUGUAAUCAUUUUAAGGGUA, with 0.95; and GUUAACGGCCAUAGGCCAUGGAAACUAGGAGCACCAUUUCGCUGCCAGUGAAGGAAUGAACAAAGAAAAUCUGGGCCAGGCAGGCAUCAAAAGAAAUAGUCUUGCGCUCAACCAGAAAGUCUGCAAUCAUUUUAAGGGUA, with 0.44; and GUUAACGGCCAUAGGCCAUGGAAACUAGGAGCACCAUUUCGCUGCCAGUGAAGAAAUGGACAAAGAAAAUCUGGGCCAGGCAGGCAUCAAAAGAAAUAGUCUUACGCUCAACCAGAAAGUCUAUAAUCAUUUUAAGGGUA, with 0.01.
With GUUAACGGCCAUAGGCCAUGGAAACUAGGAGCACCAUUUCGCUGCCAGUGAGGAAAUGAACAAAGAAAACCUGGGCCAGGCAGGCAUCAAAAGAAAUAGUCUUGCGCUCAACCAGAAGGUCUGUAAUCAUUUUAUGGGUA, the self-cleavage stood at 0.1.
Then GUUAACGGCCAUAGGCCAUGGAAACUAGGAGCACCAUUUCGCUGCCAGUGAAGAAAUGGACAAGGAAAAUCUGGGCCAGGCAGGCAUCAAAAGAAAUAGUCUUGCGCUCAACCAGAAGGUCUGUAAUCAUUUUAAGGGUA, with 0.49.
The figure for GUUAACGGCCAUAGGCCAUGGAAACUAGGAGCACCAUUUCGCUGCCAGUGAAGGAAUGAACAAAGAAAAUCUGGGCCAGGCAGGCAUCAAAAGAAAUAGUCUUGCGCUCAACCAGAAAGUCUGUAAUCACUUUAAGGGUA is 2; for GUUAACGGCCAUAGGCCAUGGAAACUAGGAGCACCAUUUCGCUGCCAGUGAAGAAAUGGACAAAGAAAAUCAGGGCCAGGCAGGCAUCAAAAGAAAUAGUCUUGCGCUCAACCAGAAAGUCUGUAAUCAUUUUAAGGGUA it is 0.27.
The figure for GUUAACGGCCAUAGGCCAUGGAAACUAGGAGCACCAUUUCGCUGCCAGUGAAGUAAUGAACAAAGAAAAUCUGGGCCAGGCAGGCAUCAAGAGAAAUAGUCUUGCGCUCAACCAGAAAGUCUGUAAUCAUUUUAAGGGUA is 0.65; for GUUAACGGCCAUAGGCCAUGGAAACUAGGAGCACCAUUUCGCUGCCAGUGAAGAAAUGAGCAAAGAAAAUCUGGGCCAGGCAGGCAUCAUAAGAAAUAGUCUUGCGCUCAACCAGAAAGUCUGUAAACAUUUUAAGGGUA it is 1.45.
On to GUUAACGGCCAUAGGCCAUGGAAACUAGGAGCACCAUUUCGCUGCCAGUGAAGAAAUGAGCAAAGAAAGUCUGGGCCAGGCAGGCAUCAAAGGAAAUAGUCCCGCGCUCAACCAGAAAGUCUGUAAUCAUUUUAAGGGUA, for which the self-cleavage was determined as 0.29.
The figure for GUUAACGGCCAUAGGCCAUGGAAACUAGGAGCACCAUUUCGCUGCCAGUGAAGAAGUGAACAAAGAAAAUCUGGGCCAGGCAGGCAUCAAAAGAAAUAGUCUUGCGCUCAACCAGAAAGUCUGUAACCAUUUUAAGGGUG is 1.27; for GUUAACGGCCAUAGGCCAUGGAAACUAGGAGCACCAUUUCGCUGCCAGUGAAGUAAUGAACAAAGAAAAUCUGGGCCAGGCAGGCAUCAAAAGAAAUAGUCUUGCGCUCAACCAGAAAGUCUGUAAUCAUUUUAGGGGUA it is 2.05.
Then GUUAACGGCCAUAGGCCAUGGAAACUAGGAGCACCAUUUCGCUGCCAGUGAAGAAAUGAGCAAAGAAAAUCUGGGCCAGGCGGGCAUCAAAAGAAAUAGUCUUGCGCUCAACCAGAAAGCCUGUACUCAUUUUAAGGGUA, with 0.18; and GUUAACGGCCAUAGGCCAUGGAAACUAGGAGCACCAUUUCGCUGCCGGUGAAGAAAUGAACAAAGAAAAUCUGGGCCAGGCUGGCAUCAAAAGAAAUAGUCUUGCGCUCAACCAGAAAGUCUGUAAUCAUUUUAAGGGUA, with 0.19; and GUUAACGGCCAUAGGCCAUGGAAACUAGGAGCACCAUUUCGCUGCCAGUGAGGAGAUGAACAAAGAAAAUCUGGGCCAGGCAGGCAUCAAAAGAAACAGUCUCGCGCUCAACCAGAAAGUCUGUAAUCAUUUUAAGGGUA, with 0.22.
GUUAACGGCCAUAGGCCAUGGAAACUAGGAGCACCAUUUCGCUGCCAGUGAGGAAAUGGACUAAGAAAAUCUGGGCCAGGCAGGCAUCAAAAGAAAUAGUCUUGCGCUCAACCAGAAAGUCUGUAAUCAUUUUAAGGGUA: the self-cleavage turned out to be 1.19.
The figure for GUUAACGGCCAUAGGCCAUGGAAACUAGGAGCACCAUUUCGCUGCCAGUGAAGGAAUGAACAAAGAAAAUCUGGGCCAGGCAGGCAUCAAAAGAAAUAGUCUUGCGCUCAGCCAGAAAGUCUGUAAUCAUUUUAAGGGUA is 0.01.
The figure for GUUAACGGCCAUAGGCCAUGGAAACUAGGAGCACCAUUUCGCUGCCGGUGAGGAAAUGAACAAAGAAAAUCUGGGCCAGGCAGGCAUCAAAAGAAAUAGUCUUGCGCUCAACCAGAAAGUCUGUAAUCAUUUUAAGGGAA is 0.92; for GUUAACGGCCAUAGGCCAUGGAAACUAGGAGCACCAUUUCGCUGCCAGUGAAGUAACGAACAAAGAAAAUCUGGGCCAGGCAGGCAUCAAGAGAAAUAGUCUCGCGCUCAACCAGAAAGUCUGUAAUCAUUUUAAGGGUA it is 0.5; for GUUAACGGCCAUAGGCCAUGGAAACUAGGAGCACCAUUUCGCUGCCAGUGAAGAAAUGGACAAAGAAAAUCUGGGCCAGGCAGGCGUCGAAAGAAGUAGUCUUGCGCUCAACCAGAAAGUCUGUAAUCAUUUUAAGGGUA it is 2.19.
The figure for GUUAACGGCCAUAGGCCAUGGAAACUAGGAGCACCAUUUCGCUGCCAGUGAAGAGAUGAACAAAGAAAAUCUGGGCUAGGCAGGCAUCAAAAGAAAUAGUCUUGCGCUCAACCAGAAAGUCUGUAAUCAUUUUAAGGGUA is 0.47; for GUUAACGGCCAUAGGCCAUGGAAACUAGGAGCACCAUUUCGCUGCCAGUGGAGAAAUGAACAAAGAAAAUCUGGGCCAGGCAGGUAUCAAAAGAAAUAGUCUUGCGCUCAGCCAGAAAGUCUGUAAUCAUUUUAAGGGCA it is 0.1.
Take GUUAACGGCCAUAGGCCAUGGAAACUAGGAGCACCAUUUCGCUGCCAGUGAAGAAGUGAACAAAGAAAAUCUGGGCCAGGCAGGCAUCAAAAGAAAUAGUCUUGAGCUCAACCAGAAAGUCUGUAAUCAUUUUAAGGGUA: the self-cleavage was 0.07.
Then GUUAACGGCCAUAGGCCAUGGAAACUAGGAGCACCAUUUCGCUGCCAGUGAAGAAAUGACCAAAGAAAAUCUGGGCCAGGCAGGCAUCAAAAGAAAUAGUCUUGCGCUCAACCUGAAAGUCUGUAAUCAUUUUAAGGGUA, with 0.22; and GUUAACGGCCAUAGGCCAUGGAAACUAGGAGCACCAUUUCGCUGCCAGUGAAGAAAUGGACAAGGAAAAUCUGGGCCAGGCAGGCAUCAAAAGAAAUAGUCUUGCUCUCAACCAGAAAGUCUGUAAUCAUUUUAAGGGUA, with 0.06.
As to GUUAACGGCCAUAGGCCAUGGAAACUAGGAGCACCAUUUCGCUGCCCGUGAAGAAAUGAACAAAGAAAAUCUGGGCCAGGCAGGCAUCAAAAGAGAUAGUCUUGCGCUCAACCAGAAAGUCUGUAAUCAUUUUAAAGGUA, the self-cleavage is 0.87.
Then GUUAACGGCCAUAGGCCAUGGAAACUAGGAGCACCAUUUCGCUGCCAGUGAGGAAAUGAACAAAGAAAAUCUGGGCCAGGCAGGCAUCAAAAGAAAUAGUCUUGCGCUCAACCAGAAAGCCUGUAAUCAUUUUAAGGGUA, with 0.73.
In the case of GUUAACGGCCAUAGGCCAUGGAAACUAGGAGCACCAUUUCGCUGCCAGUGAAGAAAUGUACAAGGAAAAUCUGGGCCAGGCAGGCAUCAAAAGAAAUAGUCUUGCGCUCAACCAGAAAGUCUGUAAUCAUUUUAAGGGUA, the self-cleavage amounted to 1.13.
Then GUUAACGGCCAUAGGCCAUGGAAACUAGGAGCACCAUUUCGCUGCCAGUGGAGAAAUGAACAAAGAAAAUCUGGGCCGGGCAGGCAUCAAAAGAAAUAGCCUUGCGCUCAACCAGAAAGUCUGUAAUCAUUUUAAGGGUA, with 0.2; and GUUAACGGCCAUAGGCCAUGGAAACUAGGAGCACCAUUUCGCUGCCGGUGAAGAAAUGGACAAAGAAAAUCUGGGCCGGGCAGGCAUCAAAUGAAAUAGUCUUGCGCUCAACCAGAAAGUCAGUAAUCAUUUUAAGGGUA, with 0.1.

Source of the values: the RNAGym collection of RNA variant scans (doi:10.7554/elife.90254).
